# In publication PMC4336329 (PLoS ONE, 2015):
# In all, about 310,000 compounds went through this assay and about 2,200 (0.71%) showed an effect of 50% or more. Effects have a minus sign here. The list shows a part of the results.
# Target: human ether-à-go-go-related gene (hERG) potassium channel (human, UniProt Q12809)
# Test: primary screen, population patch clamp on CHO cells stably expressing hERG
# Chain of human ether-à-go-go-related gene (hERG) potassium channel (Q12809 whole entry, looked up): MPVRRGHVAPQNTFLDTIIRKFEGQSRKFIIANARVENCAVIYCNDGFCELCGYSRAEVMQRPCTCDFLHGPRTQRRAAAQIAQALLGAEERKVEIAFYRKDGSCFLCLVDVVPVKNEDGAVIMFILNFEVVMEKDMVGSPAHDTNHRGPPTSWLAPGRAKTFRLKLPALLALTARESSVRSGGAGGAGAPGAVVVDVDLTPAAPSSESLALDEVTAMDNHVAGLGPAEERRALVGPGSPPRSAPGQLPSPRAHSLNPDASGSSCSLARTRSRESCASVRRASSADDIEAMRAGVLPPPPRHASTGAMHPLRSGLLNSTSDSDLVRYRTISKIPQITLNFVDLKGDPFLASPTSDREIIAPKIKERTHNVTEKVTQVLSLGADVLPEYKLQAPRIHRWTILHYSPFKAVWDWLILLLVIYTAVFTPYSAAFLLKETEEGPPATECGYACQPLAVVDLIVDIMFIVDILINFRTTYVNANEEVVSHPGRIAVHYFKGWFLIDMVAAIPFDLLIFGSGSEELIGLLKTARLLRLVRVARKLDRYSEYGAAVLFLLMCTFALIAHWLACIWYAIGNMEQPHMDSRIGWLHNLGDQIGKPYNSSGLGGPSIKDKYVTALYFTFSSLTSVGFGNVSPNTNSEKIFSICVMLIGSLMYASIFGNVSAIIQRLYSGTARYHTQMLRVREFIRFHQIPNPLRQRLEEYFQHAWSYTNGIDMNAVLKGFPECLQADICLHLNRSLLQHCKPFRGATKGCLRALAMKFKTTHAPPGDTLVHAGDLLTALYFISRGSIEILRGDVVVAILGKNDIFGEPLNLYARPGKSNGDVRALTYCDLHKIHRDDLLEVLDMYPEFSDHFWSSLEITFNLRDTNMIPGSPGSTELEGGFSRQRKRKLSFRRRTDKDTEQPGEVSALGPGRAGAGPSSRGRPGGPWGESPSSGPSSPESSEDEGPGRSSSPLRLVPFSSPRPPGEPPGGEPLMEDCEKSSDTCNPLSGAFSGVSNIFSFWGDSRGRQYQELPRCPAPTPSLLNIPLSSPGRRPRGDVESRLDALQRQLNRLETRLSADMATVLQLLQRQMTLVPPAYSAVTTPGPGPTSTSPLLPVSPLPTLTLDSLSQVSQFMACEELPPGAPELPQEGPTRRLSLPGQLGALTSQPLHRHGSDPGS
row,SMILES,"hERG current change (%, negative = inhibition) at 1uM"
1,Cc1ccccc1-c1nc(CS(=O)(=O)CC(=O)NC2CCCCC2C)c(C)o1 (stereo not shown),-1.4%
2,CCN(CC)S(=O)(=O)c1ccc(OCC2CCCCO2)c([N+](=O)[O-])c1 (stereo not shown),11.3%
3,O=C(CCc1ccccc1)Nc1ncc2c(n1)CCCC2=O,2.31%
4,CSc1nc2nc(-c3ccccc3)cc(C(F)(F)F)n2n1,10.3%
5,O=C(Cn1nnc2ccccc2c1=O)N1CCOCC1,7.95%
6,Cc1cc(C)c(S(=O)(=O)Nc2nnc(C3CCCCC3)s2)c(C)c1,17.2%
7,CC(NCC(O)COc1ccccc1)C1COc2ccccc2O1 (stereo not shown),-2.33%
8,COc1ccc(C(=O)COC(=O)CNS(=O)(=O)c2ccc(C)cc2)cc1,7.18%
9,COC(=O)c1c(-c2ccc(OC)cc2)oc2ccc(-c3cc(OC)c(OC)c(OC)c3)cc12,11.5%
10,Cc1ccc(-c2noc(C3CCCN(C(=O)c4ccc(F)cc4F)C3)n2)cc1 (stereo not shown),-14.9%
11,COc1ccccc1C(=O)NC1CCCc2ccccc21 (stereo not shown),18.4%
12,COc1ccc2ccccc2c1/C=N/Nc1ccc(Cl)c(C(=O)O)c1,14.3%
13,C/C(=N\NC(=O)c1nnn(-c2nonc2N)c1CN1CCCCCC1)c1ccc(Br)cc1,18.2%
14,CNC(=O)c1ccc(OCc2ccccc2)c(OC)c1,4.35%
15,Cc1cc(C(=O)Nc2ccc(S(=O)(=O)Nc3onc(C)c3C)cc2)c(C)o1,7.15%
16,Cc1nc(NC(=O)C(Cl)Cl)sc1C(=O)N(C)C,7.63%
17,COc1cc(NC(=S)N2CCCC(C)C2)cc(OC)c1OC (stereo not shown),13.4%
18,Cc1ccsc1C(=O)Nc1nnc(-c2ccco2)o1,5.56%
19,O=C(CCSc1ccccc1)N1CCCC1,15.8%
20,CC(C)CC(=O)Nc1cc2c3c(c1)CCN3C(=O)CC2,13.3%
21,O=C(COc1c(Br)cc(Br)cc1Br)N/N=C/c1ccco1,13.8%
22,O=C(CSc1nn(-c2ccc(Cl)cc2)c(=S)s1)N1CCN(C(=O)c2ccco2)CC1,-44.1%

row,SMILES,"hERG current change (%, negative = inhibition) at 1uM"
1,Cc1nc(NC(N)=S)sc1C(=O)Nc1ccccc1,6.92%
2,CC(C)COc1ccc(-c2nn(-c3ccccc3)cc2C(=O)Nc2nccs2)cc1,7.73%
3,O=C(O)[C@H](Cc1ccccc1)NC(=O)N1CCC(Cc2ccccc2)CC1,1.61%
4,COc1ccc(NC(=O)Cn2c(=O)n(-c3ccc(OC)cc3OC)c(=O)c3c(C)c(C)sc32)cc1,3.79%
5,CCOc1ccc(Oc2ccc(Cl)cc2N)cc1.Cl,7.85%
6,CC(C)(C#N)NC(=O)c1ccco1,8.11%
7,O=C(CNCC1CCCCC1)Nc1ccc(N2CCCCC2)cc1.O=C(O)C(=O)O,-0.686%
8,Cc1cc(C)n(-c2nc3ccccc3c(=O)n2OCC(N)=O)n1,17%
9,CCOc1cc(/C=C2\C(=O)NN(c3ccccc3)C2=O)cc([N+](=O)[O-])c1O,11.7%
10,Cc1cc(NC(=O)CSc2nc(N)c(NC(=O)c3ccc(F)c(F)c3)c(=O)[nH]2)no1,14.1%
11,COc1ccc(N=C2SCC(c3ccc(C)cc3)=NN2CCO)cc1,10.5%
12,Cc1c(N/C=C/C(=O)c2cccs2)c(=O)n(-c2ccccc2)n1C,10.1%
13,CCN(CC)c1ccc(/C=N/NC(=O)Nc2nonc2N)cc1,8.11%
14,Cc1c(C(=O)OCC(=O)Nc2c(C)n(C)n(-c3ccccc3)c2=O)oc2ccccc12,12.9%
15,CSc1ccc(CN2C(=O)NC3(CCCCC3)C2=O)cc1,11.2%
16,NC(=O)c1cc[n+](Cc2ccc([N+](=O)[O-])cc2)cc1.[Br-],10.9%
17,COCCNC(=O)C1CC(c2ccc([N+](=O)[O-])cc2)=NO1 (stereo not shown),2.69%
18,CCc1cc2c(SCC(=O)NC(=O)c3cccn3C)ncnc2s1,16.3%
19,Cc1ccc(NC(=S)N2CCCC(c3ccccc3)=N2)cc1,17.7%
20,O=C(c1ccc(S(=O)(=O)c2ccccc2Cl)c([N+](=O)[O-])c1)N1CCN(Cc2ccccc2)CC1,-1.76%
21,Cc1cc(C)n2nc(C(=O)OCC(=O)NNC(=O)c3ccc(Cl)cc3)nc2n1,13.3%
22,C=CCNC(=S)Nc1ccc(OC(F)F)c(Cl)c1,2.83%

row,SMILES,"hERG current change (%, negative = inhibition) at 1uM"
1,Cc1ccc(/C=N/NC(=O)CCn2nc(C)cc2C)c(C)c1,-0.275%
2,O=S(=O)(c1ccccc1)[C@@]1(c2ccccc2)C[C@@H]2ON=C(c3cccc(Br)c3)[C@@H]2C1,13.3%
3,CCOc1cc(S(=O)(=O)Nc2ccccc2CC)ccc1Cl,-6.86%
4,COc1cccc(N2CCN(c3ccc4nnc(CCC(=O)Nc5ccc(OC)c(OC)c5)n4n3)CC2)c1,10.5%
5,NC(=O)c1cc[n+](CC(=O)NC(=O)Nc2ccccc2)cc1,9.18%
6,CC1=N/C(=C\c2ccc([N+](=O)[O-])cc2)C(=O)N1c1ccc(F)cc1F,0.824%
7,Cc1ccc(S(=O)(=O)c2c(C)nn(C(C)(C)C)c2OC(=O)c2ccc(Br)o2)cc1,15%
8,CCOC(=O)Cc1nn[nH]n1,20.1%
9,O=C(O[C@@H](C(=O)O)[C@@H](OC(=O)c1ccccc1)C(=O)O)c1ccccc1,13.9%
10,CCCCOC(=O)C1[C@H]2C(=O)N(CCc3ccccc3)C[C@]23C=C[C@H]1O3 (stereo partly shown),12.3%
11,COC(=O)c1ccc(CN2C(=O)c3ccccc3C2=O)o1,18.8%
12,Cc1ccc(S(=O)(=O)Nc2cc(C)c(O)c(S(=O)(=O)c3ccc(C)cc3)c2)cc1,-4.15%
13,Cn1nnnc1SCC(=O)N1CCOCC1,16.4%
14,CCOC(=O)CSc1nnc(NC(=O)c2ccc3c(c2)OCO3)s1,-2.31%
15,CCC(=Nc1ccc2c(c1)CCC2)c1c(O)n(C2CCCCC2)c(=O)[nH]c1=O,-22.8%
16,O=C(CCC(=O)Nc1ccccc1)N/N=C/c1cccnc1,7.89%
17,Nc1ccc2c(C(F)(F)F)cc(C(F)(F)F)nc2n1,14%
18,Nc1nc(Cl)cc(-c2ccccc2)n1,6.89%
19,O=C(CNC(=O)c1cccc(Br)c1)N/N=C/c1cccs1,15.4%
20,O=C(c1cccc(Cl)c1)N1CCN(Cc2ccc3c(c2)OCO3)CC1,6.48%
21,O=C(NC1CCCCC1)C(c1ccccc1)N(C(=O)c1csnn1)C1CC1 (stereo not shown),12.3%
22,Cc1c(/C=N/NC(=O)c2ccc(Br)o2)cnn1C,17.8%

row,SMILES,"hERG current change (%, negative = inhibition) at 1uM"
1,CCC(C)(C)NC(=O)C(c1ccc(O)cc1)N(Cc1ccco1)C(=O)CCC(=O)Nc1ccccn1 (stereo not shown),14.9%
2,CCOC(=O)c1cccc(NC(=O)CSc2nnc(COc3ccc(Cl)cc3)o2)c1,17.6%
3,CN1CCN(C(=O)/C(=C/c2ccco2)NC(=O)c2ccccc2)CC1,-37.1%
4,CCCOC(=O)C1NC(=O)N2C(C(=O)OCCC)C(C)(C)S[C@H]12 (stereo partly shown),11.9%
5,Cc1nc(NC(=O)CSc2nnc(-c3ccncc3)n2C)sc1C,29.2%
6,C=CCn1c(SCC(=O)Nc2sc3c(c2C#N)CCC3)nnc1C1COc2ccccc2O1 (stereo not shown),12.3%
7,CCn1c2ccccc2c2nnc(SCC(N)=O)nc21,6.41%
8,CCOc1ccc(N(C)S(=O)(=O)c2ccc(C)c(C(=O)OCC(=O)c3c[nH]c4ccccc34)c2)cc1,10.4%
9,Cc1cc(Cl)ccc1OCC(=O)NNC(=O)c1cnccn1,13.3%
10,COc1ccc(NC(=O)CCC(=O)N2CCN(S(=O)(=O)c3ccc(C)cc3)CC2)c(OC)c1,-2.37%
11,O=c1[nH]c(=O)n(Cc2ccccc2)c2c1C(C(F)(F)F)(C(F)(F)F)N=C(c1ccco1)N2,3.6%
12,O=C(Nc1ccc(Br)cc1)c1ccc(Br)c(S(=O)(=O)Nc2cccnc2)c1,0.697%
13,C#CCSc1nnc(CNS(=O)(=O)c2ccc(Br)cc2)n1C,-0.803%
14,Cc1ccc(N2C(=O)c3ccccc3C2C(=O)c2cc(C)ccc2O)cc1 (stereo not shown),4.77%
15,Cc1noc(C)c1S(=O)(=O)N1CCN(Cc2ccc3c(c2)OCO3)CC1,2.42%
16,NC1=NC(=O)C(Cc2cccc(Cl)c2)S1 (stereo not shown),5.75%
17,COc1cccc(-c2nn(-c3ccc(C)cc3)cc2C(=O)N2CCc3cc(OC)c(OC)cc3C2)c1,10.5%
18,CC(C)(C)C(=O)NNC(=O)c1ccc(Oc2cc(Cl)cc(Cl)c2)o1,10.7%
19,CCOc1ccc(-n2c(=O)c3c4c(sc3n(CC(=O)NCC3CCCO3)c2=O)CCCC4)cc1 (stereo not shown),0.186%
20,COc1ccc(OC)c(C2N(c3ccccn3)C(=O)C3CCCN32)c1 (stereo not shown),10.6%
21,O=C(CCc1nc2ccccc2c(=O)[nH]1)Nc1ccc(Cl)c(Cl)c1,4.57%
22,CC1CCN(C(=O)CSc2ccc(-c3ccc(F)cc3)nn2)CC1,-12.5%
